According to patent publication US20230322882A1 (NANJING NORMAL UNIVERSITY, published 2023):
Where two headings read alike, the source gives them in different places. One block for each binder: values may come before it.

Columns and labels:
Experiment in all cases: cell-based or functional assay
[1] = biological target: T1, CD25, CD122 and CD132 receptor molecules on HEK-Blue IL-2 cells (UniProt P01589 22-272; P14784 27-551; P31785 23-369, limits assumed)
T1 sequence (looked up) 1: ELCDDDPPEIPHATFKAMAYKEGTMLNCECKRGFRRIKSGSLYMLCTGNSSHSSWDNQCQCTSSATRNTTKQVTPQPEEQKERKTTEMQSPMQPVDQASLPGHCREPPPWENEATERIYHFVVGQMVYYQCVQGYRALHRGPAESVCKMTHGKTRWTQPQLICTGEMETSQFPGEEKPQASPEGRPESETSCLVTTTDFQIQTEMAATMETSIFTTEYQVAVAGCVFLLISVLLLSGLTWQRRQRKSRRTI
T1 sequence (looked up) 2: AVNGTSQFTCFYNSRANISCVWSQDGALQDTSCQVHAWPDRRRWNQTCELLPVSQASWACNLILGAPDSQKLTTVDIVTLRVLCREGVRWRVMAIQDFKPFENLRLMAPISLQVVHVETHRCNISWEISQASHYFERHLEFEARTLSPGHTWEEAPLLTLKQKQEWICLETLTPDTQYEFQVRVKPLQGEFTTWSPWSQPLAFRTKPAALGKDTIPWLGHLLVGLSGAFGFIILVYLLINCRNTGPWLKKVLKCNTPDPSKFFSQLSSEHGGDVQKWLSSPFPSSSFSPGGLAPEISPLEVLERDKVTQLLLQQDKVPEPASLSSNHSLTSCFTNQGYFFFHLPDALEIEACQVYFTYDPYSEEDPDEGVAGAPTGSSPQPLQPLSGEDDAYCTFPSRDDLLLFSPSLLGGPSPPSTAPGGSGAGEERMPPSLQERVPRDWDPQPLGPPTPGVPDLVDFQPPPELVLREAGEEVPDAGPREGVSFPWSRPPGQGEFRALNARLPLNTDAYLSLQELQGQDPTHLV
T1 sequence (looked up) 3: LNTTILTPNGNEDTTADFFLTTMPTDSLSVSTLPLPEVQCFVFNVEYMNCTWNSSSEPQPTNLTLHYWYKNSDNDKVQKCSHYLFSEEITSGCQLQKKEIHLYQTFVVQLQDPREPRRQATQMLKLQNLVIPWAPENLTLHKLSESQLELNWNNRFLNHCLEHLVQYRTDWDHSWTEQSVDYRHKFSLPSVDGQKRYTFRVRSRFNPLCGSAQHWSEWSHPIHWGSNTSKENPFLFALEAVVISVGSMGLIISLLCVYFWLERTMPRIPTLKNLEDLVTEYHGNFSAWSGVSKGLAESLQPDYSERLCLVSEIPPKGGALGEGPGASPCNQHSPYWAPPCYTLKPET

[2] = biological target: T1, CD25, CD122 and CD132 receptor …; remark: listed apart in the source
[3] = biological target: T1, CD25, CD122 and CD132 receptor …; remark: listed apart in the source

EC50 (pM), STAT5-regulated SEAP reporter in HEK-Blue IL-2 cells [1]: 6.36 pM
B1: Fusion polypeptide of SEQ ID NO: 13 (HSA D56-IL2 loop2 permutated) (ligand)
chain: DAHKSEVAHRFKDLGEENFKALVLIAFAQYLQQSPFEDHVKLVNEVTEFAKTCVADESAENCDKSLHTLFGDKLCTVATLRETYGEMADCCAKQEPERNECFLQHKDDNPNLPRLVRPEVDVMCTAFHDNEETFLKKYLYEIARRHPYFYAPELLFFAKRYKAAFTECCQAADKAACLLPKLDELRDEGKASSAKQRLKCASLQKFGERAFKAWAVARLSQRFPKAEFAEVSKLVTDLTKVHTECCHGDLLECADDRADLAKYICENQDSISSKLKECCEKPLLEKSHCIAEVENDEMPANPKLTRMLTFKFYMPKKATELKHLQCLEEELKPLEEVLNLAQSKNFHLRPRDLISNINVIVLELKGSETTFMCEYADETATIVEFLNRWITFSQSIISTLTGSGPASSSTKKTQLQLEHLLLDLQMILNGINNYKGDLPSLAADFVESKDVCKNYAEAKDVFLGMFLYEYARRHPDYSVVLLLRLAKTYETTLEKCCAAADPHECYAKVFDEFKPL[sequence of about 200 residues not given]

EC50 (pM), STAT5-regulated SEAP reporter in HEK-Blue IL-2 cells [2]: 1.75 pM
B2: Fusion polypeptide of SEQ ID NO: 12 (HSA C361-IL2 loop1 permutated) (ligand)
chain: DAHKSEVAHRFKDLGEENFKALVLIAFAQYLQQSPFEDHVKLVNEVTEFAKTCVADAAAAAKLTRMLTFKFYMPKKATELKHLQCLEEELKPLEEVLNLAQSKNFHLRPRDLISNINVIVLELKGSETTFMCEYADETATIVEFLNRWITFSQSIISTLTGSGPASSSTKKTQLQLEHLLLDLQMILNGINNYKNPKESAENCDKSLHTLFGDKLCTVATLRETYGEMADCCAKQEPERNECFLQHKDDNPNLPRLVRPEVDVMCTAFHDNEETFLKKYLYEIARRHPYFYAPELLFFAKRYKAAFTECCQAADKAACLLPKLDELR[sequence of about 400 residues not given]

EC50 (pM), STAT5-regulated SEAP reporter in HEK-Blue IL-2 cells [3]: 5.86 pM
B3: Fusion polypeptide of SEQ ID NO: 14 (HSA A300-IL2 loop2 permutated) (ligand)
chain: DAHKSEVAHRFKDLGEENFKALVLIAFAQYLQQSPFEDHVKLVNEVTEFAKTCVADESAENCDKSLHTLFGDKLCTVATLRETYGEMADCCAKQEPERNECFLQHKDDNPNLPRLVRPEVDVMCTAFHDNEETFLKKYLYEIARRHPYFYAPELLFFAKRYKAAFTECCQAADKAACLLPKLDELRDEGKASSAKQRLKCASLQKFGERAFKAWAVARLSQRFPKAEFAEVSKLVTDLTKVHTECCHGDLLECADDRADLAKYICENQDSISSKLKECCEKPLLEKSHCIAEVENDEMPADLPSLAADFVESKDVCKNYAEAKDVFLGMFLYEYARRHPDYSVVLLLRLAKTYETTLEKCCANPKLTRMLTFKFYMPKKATELKHLQCLEEELKPLEEVLNLAQSKNFHLRPRDLISNINVIVLELKGSETTFMCEYADETATIVEFLNRWITFSQSIISTLTGSGPASSSTKKTQLQLEHLLLDLQMILNGINNYKAADPHECYAKVFDEFKPL[sequence of about 200 residues not given]
